# From the supplement of paper PMC3334620
# Whole data set: some 33,000 sequences, median “E-score (-0.5 to 0.5)” near -0.012, cut for the highest 2% near 0.29. This is one part of the list.
# Target: T1, Ybr033w (UniProt P38073)
# T1 sequence: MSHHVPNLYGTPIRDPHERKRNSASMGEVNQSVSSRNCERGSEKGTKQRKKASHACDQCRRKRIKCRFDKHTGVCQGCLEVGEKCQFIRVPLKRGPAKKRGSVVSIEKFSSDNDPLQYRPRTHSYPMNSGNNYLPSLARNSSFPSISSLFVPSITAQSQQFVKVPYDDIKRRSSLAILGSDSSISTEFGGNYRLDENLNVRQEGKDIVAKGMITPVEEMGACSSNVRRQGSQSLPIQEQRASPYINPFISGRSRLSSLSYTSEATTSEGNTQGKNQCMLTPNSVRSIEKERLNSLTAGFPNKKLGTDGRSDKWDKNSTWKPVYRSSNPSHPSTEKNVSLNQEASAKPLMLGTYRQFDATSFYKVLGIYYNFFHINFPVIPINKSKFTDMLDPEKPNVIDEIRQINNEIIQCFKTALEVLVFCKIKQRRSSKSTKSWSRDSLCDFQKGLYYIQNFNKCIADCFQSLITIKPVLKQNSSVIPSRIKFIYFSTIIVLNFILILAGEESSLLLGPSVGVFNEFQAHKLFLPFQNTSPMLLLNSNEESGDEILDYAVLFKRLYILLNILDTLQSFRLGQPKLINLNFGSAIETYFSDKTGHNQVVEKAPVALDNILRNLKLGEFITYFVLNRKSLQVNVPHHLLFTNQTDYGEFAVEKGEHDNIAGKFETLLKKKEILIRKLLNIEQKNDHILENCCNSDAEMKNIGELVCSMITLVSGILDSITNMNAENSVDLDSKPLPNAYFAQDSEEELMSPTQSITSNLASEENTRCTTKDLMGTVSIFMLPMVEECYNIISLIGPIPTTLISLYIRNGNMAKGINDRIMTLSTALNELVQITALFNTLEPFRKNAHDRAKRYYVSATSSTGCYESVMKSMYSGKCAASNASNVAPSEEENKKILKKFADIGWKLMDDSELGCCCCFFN
# Experiment: PBM E-score (8-mer binding enrichment) (E-score (-0.5 to 0.5)); higher = stronger / more preferred TF binding; most listed sequences are background and not binding sites
# Details: protein concentration: 200 nM; construct: GST-full length
# Procedure: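 Universal 'all 10-mer' protein binding microarrays (Agilent AMADID 015681) probed with GST-tagged S. cerevisiae TFs (full-length or DBD) made by in vitro transcription/translation (PURExpress), about 100-200 nM. Bound TF was detected with fluorescent anti-GST. Each ungapped 8-mer (which stands for itself and its reverse complement) is scored by the PBM enrichment score (E-score), a modified Wilcoxon-Mann-Whitney statistic from -0.5 to +0.5, computed with the Universal PBM Analysis Suite. Scale: above 0.35 generally sequence-specific binding.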
row,Sequence,PBM E-score
1,GCTAAGAC,-0.0695
2,ATAAACGC,-0.0345
3,CCGTTGGC,-0.216
4,CAAGCTCG,-0.0159
5,CTGTATCC,-0.0868
6,CACCGCCG,-0.216
7,CAATATGA,0.141
8,CCGGAGTC,-0.0733
9,GCTATAGA,0.0396
10,CGGACCTC,-0.292
11,CGCTTGGC,-0.266
12,CGAGACTA,-0.0315
13,GATGCGGC,-0.16
14,AGTTTAAC,0.0138
15,AGTAGACC,0.0631
16,CTGCCTGC,-0.111
17,CACCCCTA,-0.235
18,GTAGCCCA,-0.121
19,GCAGGGGA,-0.405
20,CGGAACGC,-0.188
21,AGCCTGGC,-0.112
22,ATAAATCA,0.223

row,Sequence,PBM E-score
1,AGTGGAGC,-0.0976
2,AGGTGGCA,0.0529
3,CGGAGCTA,-0.0927
4,CCGGTGAA,0.00182
5,TATGCCAA,0.0532
6,AACTTGAC,-0.0113
7,CTACGGAA,0.0733
8,GCGCCGAC,-0.263
9,CCCTGCAC,-0.0773
10,GCATTAGA,0.133
11,GAGAGTAC,0.0366
12,GATACCGA,-0.155
13,GGATACCA,-0.0342
14,AAGGTCGT,-0.00228
15,AGGGAGTC,-0.193
16,AAAGCCTC,-0.0396
17,ACAGTGGC,-0.228
18,CGTTCAAG,-0.00623
19,GGGCTGGA,-0.0412
20,GCAGAGGA,-0.0964
21,AACACAGT,0.0158
22,TCCCATAA,-0.0456

row,Sequence,PBM E-score
1,TACCTCGA,0.116
2,CAGTAACG,0.0315
3,CCGCTTCC,-0.211
4,ATTTACCA,0.212
5,ACAGTTGC,-0.047
6,CCACTTAA,0.0531
7,AGGTGCTC,-0.398
8,CATCTACG,0.0592
9,AAGAGATC,-0.0848
10,AAACTCGC,0.0504
11,AGCCCCAC,-0.179
12,CTATCCTA,0.00969
13,CGGTAATC,-0.156
14,AGCATCCA,0.0677
15,GCAAATCC,0.041
16,CTCCACAC,-0.0229
17,ATGGTTAG,0.11
18,AACCGGAG,-0.0523
19,GGGGAGCA,-0.37
20,CTGCAAAG,-0.0144
21,GCCGCCAC,-0.349
22,CTGCTTAA,0.0805

row,Sequence,PBM E-score
1,CTGCCCAG,-0.178
2,CCAGTTAG,-0.0484
3,ACAACGTG,0.0817
4,CTGAAGTA,0.107
5,CAGCTAAG,-0.119
6,CGGCAACG,-0.278
7,GGCTAGAC,-0.144
8,CCATTGCA,0.0345
9,ACCGACCG,-0.227
10,AGTTCTAC,0.0539
11,CAATTGAC,0.0302
12,CTCGAACA,-0.0315
13,ACTTACTG,-0.00657
14,CCGTAGCC,-0.324
15,CCACCGCC,-0.206
16,GAGACTCA,-0.028
17,ATTTGGCA,-0.0652
18,GGCAACCA,-0.0635
19,AGATGAAG,-0.104
20,GCCTGTTA,0.0795
21,ACTCATGG,-0.0399
22,ATTTCTTC,0.313

row,Sequence,PBM E-score
1,AGGGGCTG,-0.194
2,GCCGAAAA,0.103
3,CTGTACGC,-0.24
4,CTAGTGCA,-0.0911
5,AGTCAACT,-0.00424
6,CAATCGGC,-0.0708
7,ACAAATTC,0.259
8,CCTGACAG,-0.0485
9,GCCGCACC,-0.11
10,TGTGCCAA,0.102
11,GCCAAACA,-0.15
12,CAGTATTC,0.0587
13,CACAATAA,0.179
14,CCAAGCTC,-0.0526
15,GCAAAGCA,-0.0947
16,GCTCGGCC,-0.191
17,AATCGGGA,0.0682
18,CTCCCGTC,0.0328
19,ACAGTACT,0.104
20,AGGGCTCA,-0.155
21,CTATCGAC,-0.135
22,CCTGATCC,-0.147
